About 1,100 (0.39%) of roughly 280,000 compounds were called active. The shares of active, inactive and inconclusive entries below differ from those in the screen. The call rests on the fitted dose curve; in most records, active means well fitted inhibition curve with a large enough effect; inconclusive means small, poorly fitted or top-dose-only effect, or effect the other way; inactive means flat fitted curve, though single readings scatter. Potencies of inconclusive entries are left out as doubtful fits.
target: Microtubule-associated protein tau (Homo sapiens) (UniProt P10636); experiment: qHTS for Inhibitors of Tau Fibril Formation, Fluorescence Polarization; settings: K18 P301L tau heparin fibrillization, Alexa594 FP, 6 h; series mostly up to 57.7 µM; activity, negative = inhibition: at the top concentration; further: nearly all actives have a fitted effect of over 55% in size
Procedure, shortened: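 Recombinant K18 P301L […], labeled with Alexa 594 at 0.24 uM over 15 uM unlabeled; heparin inducer 20 uM final; 37 C, 6 hr; FP endpoint.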
On the % scale 0 is the no-effect control and ±100 the full control effect; potency means the concentration at half of the fitted maximal effect; tags describe the fitted curve by direction and shape.

Sequence of UniProt P10636 (P10636 whole entry, looked up): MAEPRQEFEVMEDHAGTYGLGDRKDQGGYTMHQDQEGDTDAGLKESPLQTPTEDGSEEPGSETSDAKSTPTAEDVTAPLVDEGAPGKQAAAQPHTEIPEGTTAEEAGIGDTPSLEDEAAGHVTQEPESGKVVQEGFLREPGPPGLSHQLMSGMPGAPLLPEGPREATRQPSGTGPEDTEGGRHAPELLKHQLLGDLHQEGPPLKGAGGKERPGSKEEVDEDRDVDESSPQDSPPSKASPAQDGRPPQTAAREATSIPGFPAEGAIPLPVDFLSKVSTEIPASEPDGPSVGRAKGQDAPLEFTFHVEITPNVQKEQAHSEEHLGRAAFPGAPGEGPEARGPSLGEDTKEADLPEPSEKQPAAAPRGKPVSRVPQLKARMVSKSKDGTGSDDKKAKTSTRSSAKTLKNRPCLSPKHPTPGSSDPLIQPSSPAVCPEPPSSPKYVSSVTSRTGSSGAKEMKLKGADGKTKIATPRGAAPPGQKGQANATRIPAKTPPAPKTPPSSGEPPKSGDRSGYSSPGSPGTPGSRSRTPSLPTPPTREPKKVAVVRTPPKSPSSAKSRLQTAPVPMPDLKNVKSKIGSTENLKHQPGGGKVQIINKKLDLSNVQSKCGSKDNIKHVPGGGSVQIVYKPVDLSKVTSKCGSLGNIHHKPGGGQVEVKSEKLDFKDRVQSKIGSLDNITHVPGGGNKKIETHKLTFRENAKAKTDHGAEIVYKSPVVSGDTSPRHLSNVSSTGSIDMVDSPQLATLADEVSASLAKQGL

**Q.** Which Potency does the source give for `CC(C)(C)c1ccc(CNc2cc(N3CCOCC3)ccc2[N+](=O)[O-])cc1` here?
**A.** The Potency was active: 28.2 µM.

**Q.** `Cc1c(NC(=O)CSc2nnc3c4ccccc4n(CCc4ccccc4)c3n2)c(=O)n(-c2ccccc2)n1C` was tested. Which “activity, negative = inhibition” value did it give?
**A.** The value was inactive: 5.06%.

**Q.** `CC1CCN(C(=S)SCc2nc(N)nc(Nc3ccccc3)n2)CC1` was tested. Which Potency did it give?
**A.** The Potency was inconclusive [inhibitor, partial curve].

**Q.** How did the Potency turn out when `CC(C)OC(=O)c1c(NC(=O)c2ccco2)sc2c1CCCCC2` was run?
**A.** The Potency was inconclusive [inhibitor, partial curve, poor fit].

**Q.** Which Potency does the source give for `O=C(NCCC1=CCCCC1)c1ccc2c(=O)n3nc(Nc4ccccc4)sc3nc2c1` here?
**A.** The Potency was inconclusive [inhibitor, partial curve, poor fit].

**Q.** With `CCN(CC)S(=O)(=O)c1ccc2c(c1)C(=NO)c1cc(S(=O)(=O)N(CC)CC)ccc1-2` as the compound, how does the Potency read?
**A.** Its Potency is inconclusive [inhibitor, full curve, poor fit].

**Q.** With `Cc1ccc2nc(-c3ccc(NS(=O)(=O)c4ccc(F)c(F)c4)cc3)sc2c1` as the compound, how does the Potency read?
**A.** Its Potency is inconclusive [inhibitor, partial curve].

**Q.** `CC1CCN(CCOCCSc2ccc(Cl)cc2)CC1` was tested. Which Potency did it give?
**A.** The Potency was inconclusive [inhibitor, single point].

**Q.** How did the Potency turn out when `O=C(Nc1ccccc1C(F)(F)F)c1ccc2oc(=O)c(S(=O)(=O)c3ccc(F)cc3)cc2c1` was run?
**A.** Its Potency is inconclusive [inhibitor, partial curve].

**Q.** `CN(C)c1nc(=Nc2cccc(Cl)c2)ss1` was tested. Which Potency did it give?
**A.** Its Potency is inconclusive [inhibitor, partial curve].

**Q.** For `CCCn1c(=O)c(C(=O)NCc2ccccn2)c(O)c2ccccc21`, which “activity, negative = inhibition” value is on record?
**A.** Its value is inactive: 12.5%.

**Q.** For `Cc1ccc(C(=O)Nc2nc(COc3ccccc3)cs2)s1`, which Potency is on record?
**A.** The Potency was inconclusive [inhibitor, partial curve].

**Q.** How did the Potency turn out when `COc1ccc(CC(=O)Nc2ccc(-c3noc(-c4ccccc4OC)n3)cc2)cc1` was run?
**A.** Its Potency is inconclusive [inhibitor, partial curve].

**Q.** For `COc1ccc(-c2noc(CCC(=O)Nc3ccc(C(F)(F)F)cc3)n2)cc1`, which Potency is on record?
**A.** Its Potency is inconclusive [inhibitor, full curve, poor fit].

**Q.** With `Cc1ccc(NC(=O)CSc2nnc3[nH]c(=O)cc(-c4ccccc4)n23)cc1Cl` as the compound, how does the “activity, negative = inhibition” value read?
**A.** The value was inactive: -3.22%.

**Q.** How did the “activity, negative = inhibition” value turn out when `NNc1ccccc1C(F)(F)F` was run?
**A.** The value was inactive: -0.102%.

**Q.** How did the “activity, negative = inhibition” value turn out when `COc1cccc(CNC(=O)CCC2CCCN(C(=O)Cc3ccccc3F)C2)c1` (centres undefined) was run?
**A.** The value was inactive: 5.34%.

**Q.** Which Potency does the source give for `CCOC(=O)c1c(-c2ccccc2)csc1NC(=O)c1nn(CC)cc1Br` here?
**A.** The Potency was inconclusive [inhibitor, full curve].

**Q.** Which Potency does the source give for `COc1ccc(CCNc2nc3c(-c4cccc(F)c4)nnn3c3ccccc23)cc1OC` here?
**A.** The Potency was inconclusive [inhibitor, partial curve].

**Q.** With `COc1cc2c(cc1OC)n(Cc1ccc([N+](=O)[O-])cc1)c(=O)n1nc(-c3ccccc3)nc21` as the compound, how does the “activity, negative = inhibition” value read?
**A.** Its value is inactive: -9.74%.

**Q.** With `CCOC(=O)/C(=C\C=C1/Sc2cc(OCC)c(OCC)cc2N1CC)C(C)=O` as the compound, how does the Potency read?
**A.** The Potency was inconclusive [activator, full curve, poor fit].

**Q.** For `ClCc1csc(N/N=C/c2cccs2)n1`, which Potency is on record?
**A.** The Potency was inconclusive [inhibitor, partial curve, poor fit].

**Q.** For `COc1cc(/C=C(/C#N)c2nc(-c3cc4ccccc4oc3=O)cs2)cc([N+](=O)[O-])c1O`, which Potency is on record?
**A.** Its Potency is inconclusive [activator, full curve, poor fit].

**Q.** Which Potency does the source give for `O=C(NC(Cc1c[nH]c2ccccc12)C(=O)N/N=C/c1ccc(Cl)cc1)c1cccs1` (centres undefined) here?
**A.** The Potency was inconclusive [inhibitor, single point].

**Q.** How did the Potency turn out when `O=C(NNc1cc(N2CCOCC2)nc(N2CCOCC2)n1)c1ccc([N+](=O)[O-])cc1` was run?
**A.** The Potency was inconclusive [inhibitor, partial curve].

**Q.** `COc1ccc(CNc2nc3ccccc3c3nc(-c4ccccc4)nn23)cc1` was tested. Which Potency did it give?
**A.** Its Potency is inconclusive [inhibitor, partial curve, poor fit].

**Q.** `Cc1ccc(C)c(CN2C(=O)C3(c4ccccc42)N(c2ccc(Cl)cc2)C(=O)CS3(=O)=O)c1` (centres undefined) was tested. Which Potency did it give?
**A.** Its Potency is inconclusive [inhibitor, single point].

**Q.** With `CCN(CC)c1ccc(/C=C2\C(=O)c3ccc(C(=O)O)cc3C2=O)cc1` as the compound, how does the Potency read?
**A.** Its Potency is inconclusive [inhibitor, partial curve].

**Q.** With `CN(C)c1cccc(NC2=CC(=[N+]3CCOCC3)CC(C)(C)C2)c1` as the compound, how does the “activity, negative = inhibition” value read?
**A.** The value was inactive: 6.28%.

**Q.** For `O=C(Cc1csc(Nc2nc(=S)[nH]c3ccccc23)n1)N1CCN(c2cccc(C(F)(F)F)c2)CC1`, which Potency is on record?
**A.** The Potency was inconclusive [inhibitor, single point].

**Q.** `COC(=O)CCCC1=CC2=CC(=O)C(C)(OC(=O)c3cccs3)C(=O)C2=CN1C1CCCC1` (centres undefined) was tested. Which Potency did it give?
**A.** The Potency was inconclusive [inhibitor, partial curve].

**Q.** How did the Potency turn out when `COc1ccc(-c2noc(-c3ccccc3C(=O)Nc3cccc(OC)c3)n2)cc1` was run?
**A.** Its Potency is inconclusive [inhibitor, single point].

**Q.** With `Cc1ccccc1-c1nnc(SCC(=O)N(C)C2CCCCC2)o1` as the compound, how does the Potency read?
**A.** The Potency was inconclusive [activator, single point].

**Q.** Which Potency does the source give for `CC1CCCCC1NC(=O)CCCn1c(=S)[nH]c2ccccc2c1=O` (centres undefined) here?
**A.** Its Potency is inconclusive [inhibitor, single point].

**Q.** `COc1ccc(-n2nc3cc(C)c(NC(=S)NC(=O)c4ccccc4C)cc3n2)cc1` was tested. Which Potency did it give?
**A.** The Potency was inconclusive [inhibitor, partial curve].

**Q.** Which Potency does the source give for `CCN(C(=O)Cn1cnc2onc(-c3ccc(F)cc3)c2c1=O)c1cc(C)ccc1C` here?
**A.** The Potency was inconclusive [inhibitor, single point].

**Q.** `CC(=C/c1ccccc1)/C=N/Nc1nc(N2CCOCC2)nc(N2CCOCC2)n1` was tested. Which Potency did it give?
**A.** Its Potency is inconclusive [activator, single point].

**Q.** For `CC(C)(C)NC(=O)NC(=O)COC(=O)c1cccc(NS(=O)(=O)c2ccc(F)c(F)c2)c1`, which “activity, negative = inhibition” value is on record?
**A.** Its value is inactive: 2.1%.

**Q.** With `COc1ccc(CCNC(=O)c2ccc3c(c2)nc2n3CCC(C)C2)cc1OC` (centres undefined) as the compound, how does the Potency read?
**A.** The Potency was inconclusive [inhibitor, single point].

**Q.** How did the Potency turn out when `Clc1ccc(-n2nnc(-c3nccs3)n2)cc1Cl` was run?
**A.** Its Potency is inconclusive [activator, partial curve].

**Q.** With `COC(=O)c1cc(-c2ccc(S(=O)(=O)N3CCCC3)cc2)c(C(F)(F)F)s1` as the compound, how does the Potency read?
**A.** Its Potency is inconclusive [inhibitor, single point].

**Q.** How did the Potency turn out when `CC(=O)Nc1ccc(NC(=O)C(C)OC(=O)c2ccccc2Sc2ccccc2C#N)cc1` (centres undefined) was run?
**A.** Its Potency is inconclusive [inhibitor, single point].

**Q.** Which “activity, negative = inhibition” value does the source give for `C=CCn1c(NC(=O)CC)c(C(=O)OCC)sc1=S` here?
**A.** The value was inactive: -3.11%.

**Q.** For `Cc1ccc(P(=O)(CSC(=N)N)c2ccc(C)cc2)cc1`, which Potency is on record?
**A.** The Potency was inconclusive [inhibitor, partial curve].

**Q.** For `CCOc1ccc(NS(=O)(=O)c2ccc(NC(=S)NC(=O)C(C)C)cc2)cc1`, which Potency is on record?
**A.** Its Potency is inconclusive [inhibitor, full curve, poor fit].

**Q.** How did the “activity, negative = inhibition” value turn out when `c1ccc(C2=Nn3c(Cn4nnc5ccccc54)nnc3SC2)cc1` was run?
**A.** The value was inactive: -8.42%.

**Q.** `COc1ccc(N2C(=O)CS(=O)(=O)C23C(=O)N(Cc2ccc(C)cc2)c2ccccc23)cc1Cl` (centres undefined) was tested. Which Potency did it give?
**A.** Its Potency is inconclusive [inhibitor, single point].

**Q.** Which “activity, negative = inhibition” value does the source give for `COCCn1c(C)cc(C2=NNC(=NC3CC3)SC2)c1C` here?
**A.** Its value is inactive: 0.665%.

**Q.** Which Potency does the source give for `COc1ccc(-c2nc3ccc(NS(=O)(=O)c4ccccc4)cc3o2)cc1` here?
**A.** The Potency was inconclusive [inhibitor, partial curve].

**Q.** With `CCOC(=O)CSc1c(-c2ccc(Cl)cc2)[nH]c2ccccc12` as the compound, how does the Potency read?
**A.** Its Potency is inconclusive [inhibitor, single point].

**Q.** `Cc1ccc(-c2n[nH]c(=S)n2C)cc1` was tested. Which “activity, negative = inhibition” value did it give?
**A.** Its value is inactive: 3.91%.

**Q.** `COc1ccc(Cl)cc1NC(=O)Cn1c(=O)n(Cc2ccco2)c(=O)c2ccc(C(=O)NC3CCCC3)cc21` was tested. Which Potency did it give?
**A.** The Potency was inconclusive [inhibitor, partial curve].

**Q.** How did the Potency turn out when `CC(=O)c1cccc(NS(=O)(=O)c2ccc(N/C=C\C(=O)c3ccc(C)cc3)cc2)c1` was run?
**A.** The Potency was inconclusive [inhibitor, partial curve].

**Q.** `Oc1ccc(O)cc1` was tested. Which Potency did it give?
**A.** Its Potency is inconclusive [inhibitor, single point].

**Q.** With `Cc1ccccc1OCc1nc(-c2ccc(NC(=O)c3ccco3)cc2)no1` as the compound, how does the Potency read?
**A.** Its Potency is inconclusive [inhibitor, partial curve].

**Q.** With `COc1cc2nc(N3CCN(C(=O)C4CCCO4)CC3)nc(N)c2cc1OC` (centres undefined) as the compound, how does the Potency read?
**A.** The Potency was “inactive”.

**Q.** Which Potency does the source give for `COc1ccc(Nc2nc(NCC3CCCO3)nc(N)c2[N+](=O)[O-])cc1` (centres undefined) here?
**A.** Its Potency is inconclusive [inhibitor, partial curve, poor fit].

**Q.** `CCCCn1c2ccccc2c2nnc(SCC(=O)Nc3ccc(NC(C)=O)cc3)nc21` was tested. Which Potency did it give?
**A.** The Potency was inconclusive [inhibitor, partial curve].

**Q.** Which Potency does the source give for `COc1ccc(C(CC(=O)Nc2cc([N+](=O)[O-])ccc2OC)c2ccccc2)cc1` (centres undefined) here?
**A.** The Potency was inconclusive [inhibitor, single point].

**Q.** `Cc1ccc(-c2nn(-c3ccccc3)cc2/C=C2\SC(=S)N(CC(=O)O)C2=O)cc1` was tested. Which “activity, negative = inhibition” value did it give?
**A.** Its value is inactive: -3.78%.

**Q.** For `O=C1C(Cc2ccc(O)cc2)NC(=S)N1C1CCCCC1` (centres undefined), which “activity, negative = inhibition” value is on record?
**A.** The value was inactive: -4.02%.

**Q.** How did the Potency turn out when `CC/C(C)=N\Nc1nc(-c2cc3cc(OC)ccc3oc2=O)cs1` was run?
**A.** Its Potency is inconclusive [activator, full curve].

**Q.** `COC(=O)c1cc(S(=O)(=O)N2CCN(c3cccc(C)c3)C(C)C2)c[nH]1` (centres undefined) was tested. Which Potency did it give?
**A.** The Potency was inconclusive [inhibitor, partial curve].

**Q.** For `Cc1ccc(C)c(N(CC(=O)NCCSCc2ccco2)S(C)(=O)=O)c1`, which Potency is on record?
**A.** Its Potency is inconclusive [inhibitor, single point].
